Assay results published in US4935362A, “BMY-28121, a new antitumor antibiotic” (Bristol-Myers Company, priority 1987, dated 1990).
Where two headings read alike, the source gives them in different places.

COc1cccc2c1N[C@H](O)[C@@H]1CC(/C=C/C(=O)N(C)C)=CN1C2=O [BMY-28121 A]
solubility (in ethyl acetate and ethyl ether): slightly soluble | solubility (in methanol, ethanol, chloroform, pyridine, and dimethylformamide): readily soluble | solubility (in n-hexane and water): practically insoluble
